Experimental data from the BET-seq Pho4 binding data (Le et al. 2018).
Some of the results follow. The energies were worked out here from pooled read counts, against the library average; single values are noisy.

Target: T1, Pho4 (S. cerevisiae) (UniProt P07270)
T1 sequence: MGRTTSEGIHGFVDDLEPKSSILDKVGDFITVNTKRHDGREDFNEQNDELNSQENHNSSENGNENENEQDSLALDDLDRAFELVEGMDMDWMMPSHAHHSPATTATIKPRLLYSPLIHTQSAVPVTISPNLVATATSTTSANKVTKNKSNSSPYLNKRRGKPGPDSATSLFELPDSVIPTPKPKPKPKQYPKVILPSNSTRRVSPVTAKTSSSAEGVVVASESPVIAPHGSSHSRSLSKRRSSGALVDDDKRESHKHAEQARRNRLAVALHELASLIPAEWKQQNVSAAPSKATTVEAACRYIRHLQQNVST
Assay: relative binding free energy (BET-seq); higher = weaker binding
Settings: reference: library average

| Sequence | relative binding free energy [kcal/mol] |
| --- | --- |
| TTATCCACGTGGGGTC | -0.17 |
| ATTTTCACGTGTAGAG | 0.32 |
| TTGAGCACGTGGCCTG | -0.22 |
| TGTTTCACGTGAGAAT | 0.55 |
| TTTGACACGTGGGCTA | -0.26 |
| TAAAGCACGTGTGGTT | -0.01 |
| CGCTGCACGTGTTTGG | 0.04 |
| GAATGCACGTGTTTAA | 0.08 |
| TTTTACACGTGCGGAT | -0.02 |
| GTATTCACGTGGTTGT | 0.19 |
| TTAGTCACGTGCTGGC | -0.04 |
| TTTTGCACGTGGGAAT | -0.02 |
| ACTGGCACGTGTGGGC | -0.05 |
| TTTTGCACGTGGACGT | 0.02 |
| GATAGCACGTGGGTAA | 0.04 |
| TATTTCACGTGAGTAG | 0.32 |
| GAGGGCACGTGGCGTT | -0.09 |
| GGGGCCACGTGGGTTA | -0.18 |
| ACTGGCACGTGGGTAG | -0.35 |
| TAAGGCACGTGTGGGA | -0.05 |
| TGGAGCACGTGGGCTA | -0.12 |

| Sequence | relative binding free energy [kcal/mol] |
| --- | --- |
| TGGTCCACGTGGTTAG | -0.02 |
| TTTATCACGTGCTATT | -0.03 |
| ACTGGCACGTGGGGTA | -0.22 |
| TTGCTCACGTGGGGTT | 0.04 |
| AAATGCACGTGGCGTG | 0.02 |
| AAAGGCACGTGGTCGT | -0.23 |
| TTGTGCACGTGATCGT | -0.03 |
| TGGAGCACGTGCTTGG | -0.2 |
| GGGCGCACGTGTAGCT | -0.02 |
| CTGGTCACGTGTAGAG | 0.2 |
| TTTAACACGTGTGGCC | 0.16 |
| ATTGTCACGTGGGGGA | -0.02 |
| GGGAACACGTGTTCTG | 0.11 |
| CGAGTCACGTGAAGGG | 0.39 |
| TTCGTCACGTGTTTCG | 0.13 |
| ATGGGCACGTGTTCGT | -0.12 |
| GTTCTCACGTGAGGTG | 0.39 |
| GTATTCACGTGTATTC | 0.4 |
| AGTGTCACGTGTATAT | 0.08 |
| GTAGGCACGTGCGTGC | -0.19 |
| CGTGGCACGTGAGTTC | 0.12 |

| Sequence | relative binding free energy [kcal/mol] |
| --- | --- |
| TTGATCACGTGGAGCT | 0.06 |
| GCATTCACGTGGTTTA | 0.27 |
| TTGGACACGTGGGGGC | -0.06 |
| GTGGACACGTGCGGCG | -0.12 |
| TAAGTCACGTGTGGGT | 0.12 |
| TATAGCACGTGGTGTG | -0.17 |
| TGTAACACGTGAAAGG | 0.31 |
| CTGGTCACGTGTAAGG | 0.16 |
| TTGAACACGTGGGTCA | -0.12 |
| GGTCACACGTGTGTTA | 0.03 |
| TCAGGCACGTGATGGG | 0.08 |
| GGATGCACGTGTCGTA | 0.06 |
| GTACGCACGTGAGGGT | 0.18 |
| TAGTGCACGTGTAATT | 0.15 |
| GAGCTCACGTGTCGGG | 0.5 |
| ACCGGCACGTGGTGGG | -0.21 |
| GGTAGCACGTGGGCTG | -0.27 |
| TGTCTCACGTGGTGGC | 0.27 |
| GTAGTCACGTGGTGCA | -0.01 |
| CTATGCACGTGGGGTC | -0.2 |
| AAAAGCACGTGAGGAG | 0.14 |
